Hit rate of the full screen: of about 410,000 compounds, about 5,000 (1.2%) were called active. The inconclusive results got no clear call from the source; some entries with a clear call stand among them for comparison. Calls follow the shape of the dose curve; as a rule, active = well fitted inhibition curve with a large enough effect; inconclusive = small, poorly fitted or top-dose-only effect; inactive = no such curve, though single readings can be large or run the other way. Where the call is inconclusive, the potency comes from a doubtful curve fit.
experiment: qHTS for Inhibitors of TGF-b; conditions: HepG2 CAGA-GFP TGF-b/SMAD3 reporter, GFP fluorescence, 18 h, TGF-beta stimulated, 500 pg/mL final; series mostly up to 46.1 µM; also: nearly all actives have a fitted effect of over 65% in size
Procedure, shortened: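 Per well, imaged GFP fluorescence of HEPG2 CAGA-GFP cells gives the signal; cells get compound, then TGF-beta (500 pg/mL final), 18 h at 37 degrees C; %Activity versus -TGF-beta and +DMSO controls.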
Potency is read from the fitted curve at half-maximal effect; tags tell the direction and shape of the fitted curve.

Structure (SMILES) | Potency
Cc1ccc(-n2c(=O)c3cccnc3n2CC(=O)Nc2cc(C)cc(C)c2)cc1 | inconclusive: 35.5 µM [inhibitor, single point]
O=C(COc1ccc(/C=N/NC(=O)C(=O)N2CCCCCC2)cc1)Nc1ccccc1Cl | inactive
COc1ccc(OC)c(C(=O)CC2(O)C(=O)N(Cc3ccccc3C)c3ccccc32)c1 (stereo not given) | inconclusive: 15.8 µM [inhibitor, single point]
CC1(C(=O)Nc2cccc3ccccc23)CCN1C(=O)Cc1ccc(Cl)cc1Cl (stereo not given) | inconclusive: 17.8 µM [inhibitor, single point]
COc1ccc(CC(N)c2csc(Nc3cc(NCc4ccco4)ncn3)n2)cc1 (stereo not given) | inconclusive: 35.5 µM [inhibitor, single point]
CCOc1ccccc1CNC(=O)CCc1c(C)nn(-c2ccc(N3CCCC3)nn2)c1C | inconclusive: 1 µM [inhibitor, full curve, poor fit]
CCOC(=O)c1cccc(NC(=O)CCS(=O)(=O)c2ccc3c(c2)CC(=O)N3C)c1 | inconclusive: 0.224 µM [inhibitor, full curve, poor fit]
N#Cc1ccsc1NC(=O)CN(Cc1ccccc1)Cc1ccccc1 | inconclusive: 35.5 µM [inhibitor, single point]
COc1cc(OC)cc(C(=O)Nc2nc(-c3ccccc3)c(-c3ccccc3)o2)c1 | inconclusive: 35.5 µM [inhibitor, single point]
Cc1ccc(S(=O)(=O)C2(C(=O)Nc3ccc(Cl)c(C(F)(F)F)c3)CC2)cc1 | active: 11.2 µM
COCCNC(=O)C1CC(=O)N(c2ccc(OC)cc2)C1c1ccc(OC)cc1 (stereo not given) | inactive
S=C(NCCc1ccccn1)NC1CC2CCC1C2 (stereo not given) | inactive
Fc1ccc(NCc2nnc3n2CCCCC3)cc1Cl | inactive
O=C1C[C@H]2C=CCc3cccc(c32)CN1Cc1ccc(Cl)cc1 | active: 10 µM
CC(C)OC(=O)CSc1nc(Cc2ccccc2)nc2ccccc12 | inconclusive: 35.5 µM [inhibitor, partial curve, poor fit]
Cc1ccc(CN2CCN(Cc3cnc(N4CCOCC4)s3)CC2CCO)cc1 (stereo not given) | inactive
CCn1c(SCC(=O)NNC(=S)Nc2ccc(C)cc2)nnc1-c1ccc(Cl)cc1 | inconclusive: 35.5 µM [inhibitor, single point]
O=C(NNC(=O)c1ccc(NC(=O)c2ccccc2)cc1)c1ccc(F)cc1 | inactive
COc1ccc(CNC(=O)C2CCN(S(=O)(=O)c3cccc4nsnc34)CC2)cc1 | inactive
CN(C)CC(O)COc1cccc(OCC(O)CN(C)C)c1 (stereo not given) | inactive
O=C(CN1CCN(Cc2ccccc2)CC1)Nc1ccc(Cl)cc1 | inactive
O=C(COCc1cc(-c2cccs2)on1)N1CCN(c2ccccc2)CC1 | inactive
C=CCn1cccc(/C=C/C(=O)c2ccc(C(C)(C)C)cc2)c1=S | inconclusive: 31.6 µM [inhibitor, single point]
CN(C)c1cccc(C(=O)N2CCC(c3c[nH]c4ccccc34)(c3c[nH]c4ccccc34)CC2)c1 | inconclusive: 0.631 µM [inhibitor, full curve, poor fit]

Structure (SMILES) | Potency
COc1cc(Nc2nc(SCc3ccc(Cl)cc3)nc3ccccc23)cc(OC)c1 | inconclusive: 31.6 µM [inhibitor, single point]
C/C(Cl)=C\Cn1c(O)c(N=NC(N)=S)c2ccccc21 | inconclusive: 22.4 µM [inhibitor, partial curve, poor fit]
CCCc1nc2c(C)cc(Br)cn2c1Cc1ccsc1 | inconclusive: 12.6 µM [inhibitor, single point]
Cc1ccccc1N1CCN(c2ncnc3scc(-c4cccs4)c23)CC1 | inactive
O=C1c2oc3ccccc3c(=O)c2C(c2cccc(O)c2)N1c1nncs1 (stereo not given) | inactive
CSCC[C@@H](Nc1nc(-c2ccccc2)nc2c1oc1ccccc12)C(=O)O | inconclusive: 3.98 µM [inhibitor, single point]
COCC(=O)OCC(=O)Nc1cc(C(C)(C)C)nn1-c1ccccc1 | inconclusive: 35.5 µM [inhibitor, single point]
CC(C)c1cccc(-c2csc(C(O)c3cccc(Cl)c3)n2)c1 (stereo not given) | inconclusive: 14.1 µM [inhibitor, single point]
Cc1ccc(NC(=S)Nc2ccc(Cl)c(Cl)c2)c(OC(F)F)c1 | inconclusive: 35.5 µM [inhibitor, partial curve, poor fit]
Cc1ccc(-c2cc(C(=O)NCCCN3CCCC3)c3ccccc3n2)cc1C | inactive
CSc1ccc(/C=C/C(=O)NC(=O)c2ccccc2O)cc1 | inconclusive: 35.5 µM [inhibitor, single point]
NC(=O)C1CCN(Cc2nc(-c3ccccc3)no2)CC1 | inactive
CCC1(CC)Cc2ccccc2-c2nc(NN)[nH]c(=O)c21 | inactive
Cc1ccn2c(Nc3ccc(C(C)C)cc3)c(-c3cccnc3)nc2c1 | inconclusive: 35.5 µM [inhibitor, single point]
CC1(c2nnc(-c3ccc(F)cc3)o2)CC(c2ccccc2)=NO1 (stereo not given) | inconclusive: 0.708 µM [inhibitor, full curve, poor fit]
O=C(NC1CCS(=O)(=O)C1)c1cn(-c2ccccc2)nc1-c1ccccc1 (stereo not given) | inconclusive: 35.5 µM [inhibitor, single point]
CCCCCOc1ccc(CSC(=N)N)cc1[N+](=O)[O-] | inconclusive: 35.5 µM [inhibitor, single point]
CC(=O)c1ccc(NC(=O)CN(C)S(=O)(=O)c2cnc[nH]2)cc1 | inactive
Cc1cc(Cl)ccc1OCC(=O)N1CCC(c2nc3ccccc3s2)CC1 | inconclusive: 20 µM [inhibitor, single point]
COCCCN=Cc1c(C)[nH]n(-c2ccc(Br)c(C)c2)c1=O | inconclusive: 6.31 µM [inhibitor, single point]
O=C(Nc1cccc(-c2nc3ccccc3o2)c1)C(F)(F)F | inconclusive: 28.2 µM [inhibitor, single point]
COCCN(C(=O)COC(=O)COc1ccc2ccccc2c1)c1c(N)n(Cc2ccccc2)c(=O)[nH]c1=O | inconclusive: 0.199 µM [inhibitor, full curve, poor fit]
Cc1cc(C(=O)N/N=C/c2ccc(-c3ccccc3Cl)o2)n[nH]1 | inconclusive: 22.4 µM [inhibitor, single point]
CCOc1ccc(C(c2c(O)cc(C)n(Cc3ccco3)c2=O)N2CCCCC2)cc1 (stereo not given) | inactive

Structure (SMILES) | Potency
CC12CCC(C(=O)N3CCCCCC3)(OC1=O)C2(C)C (stereo not given) | inconclusive: 0.631 µM [inhibitor, full curve]
CC1=Nc2cc(C(=O)NCC3CCCO3)ccc2Sc2ccc(C)cc21 (stereo not given) | inconclusive: 6.31 µM [inhibitor, single point]
C/C(=N\Nc1ccc([N+](=O)[O-])cc1)c1ccc(C#N)cc1 | inactive
O=C1Nc2cc(C(=O)NCCN3CCCCCC3)ccc2S/C1=C/c1ccccc1F | active: 10 µM
CS(=O)(=O)Nc1ccc(-c2cc(/C=C3\SC(N)=NC3=O)c[nH]c2=O)cc1 | inconclusive: 6.31 µM [inhibitor, single point]
Cc1ccc2cc(C(c3nnnn3Cc3ccccc3)N3CCN(c4ccccc4)CC3)c(=O)[nH]c2c1 (stereo not given) | inconclusive: 10 µM [inhibitor, partial curve, poor fit]
COc1ccc(NC(=O)CN2C(=O)COc3ccc(S(=O)(=O)N4CCCCC4)cc32)cc1OC | inactive
CCOc1ccc(NC2=C(Cl)C(=O)N(C3CCCCC3)C2=O)cc1 | inactive
COC(=O)c1ccccc1NC(=O)Cn1c(=O)cc(C)c2c(C)nn(C)c21 | inconclusive: 28.2 µM [inhibitor, single point]
Cc1cc(C)c2c(c1)c(C)cc1nnc(SCC(=O)c3ccc(F)cc3)n12 | inactive
COc1ccc(-c2n[nH]c(C)c2-c2cscn2)c(O)c1 | inactive
Cc1ccc(C)c(Cn2c(C(=O)O)c(CNCc3cccs3)c3ccccc32)c1 | inconclusive: 8.91 µM [inhibitor, partial curve, poor fit]
Cc1ccc(Cn2nnc3c(=O)[nH]c(C4CCN(S(=O)(=O)c5ccc(C)cc5)CC4)nc32)cc1 | inconclusive: 35.5 µM [inhibitor, single point]
COc1ccc(C(=O)CSc2nc(C(C)(C)C)nc3ccccc23)cc1 | active: 20 µM
COc1ccc(N2CCN(C(c3ccccc3F)c3sc4nc(-c5ccco5)nn4c3O)CC2)cc1 (stereo not given) | inconclusive: 7.94 µM [inhibitor, partial curve, poor fit]
O=C(Nc1ccccc1[N+](=O)[O-])c1cc(S(=O)(=O)N2CCOCC2)cs1 | inconclusive: 7.08 µM [inhibitor, full curve, poor fit]
CCOC(=O)c1c(NC(=O)COc2cccc(C)c2C)sc(C(C)=O)c1C | inactive
OC(c1cccc(Cl)c1)c1nc(/C=C/c2ccc(C(F)(F)F)cc2)cs1 (stereo not given) | inconclusive: 35.5 µM [inhibitor, single point]
O=C(Nc1cc(Sc2ccccn2)cc([N+](=O)[O-])c1)c1ccc(Cl)cc1 | active: 14.1 µM
O=C(NC(CC1CCCCC1)C(=O)O)c1ccccc1 (stereo not given) | inactive
Cc1ccc(NC(=O)CN2C(=O)NC(Cc3ccccc3)C2=O)cc1Cl (stereo not given) | inconclusive: 10 µM [inhibitor, partial curve]
CCCn1c(=O)c(C(=O)NNS(=O)(=O)c2ccc(Cl)cc2)c(O)c2ccccc21 | inconclusive: 15.8 µM [inhibitor, partial curve, poor fit]
